The target in this assay is insulin receptor-A on CHO-hIR cells (human). The assay is described as follows: cell-based or functional assay.

In patent US20210094999A1 one finds % maxERK/% maxAKT and Elisa hIR pY1158 max (% of human insulin) (% of human insulin) data, which are given here for one molecule.

B1: N{Epsilon-B28}-17-carboxyheptadecanoyl-[GluA14,PheB5,GlyB26,LysB28],des-(B29-B30)-Insulin (ligand)
chain 1: not shown
chain 2: FVNQFLCGSHLVEALYLVCGERGFFGTK
modifications: here or on the partner: Lys B28: N-epsilon acylated with C18 diacid, no linker
Consider B1, for which the % maxERK/% maxAKT is 0.26 and the Elisa hIR pY1158 max (% of human insulin) (% of human insulin) was 10.
